PubChem BioAssay AID1452 (National Center for Advancing Translational Sciences (NCATS), 2008)
The whole screen tested about 150,000 compounds, of which about 190 (0.13%) were called active. The shares of active, inactive and inconclusive entries below differ from those in the screen. Calls follow the shape of the dose curve; as a rule, active = well fitted inhibition curve with a large enough effect; inconclusive = small, poorly fitted or top-dose-only effect; inactive = flat fitted curve, though single readings scatter. Potencies of inconclusive entries are doubtful fits and often do not repeat.

These molecules were tested against Polyunsaturated fatty acid lipoxygenase ALOX12 (Homo sapiens) (UniProt P18054) (assay: qHTS Assay for Inhibitors of 12-hLO (12-human lipoxygenase)). Details: purified 12-hLO, xylenol orange hydroperoxide absorbance; series mostly up to 57.1 µM; activity change, negative = inhibition: at the top concentration.
UniProt P18054, sequence (P18054 whole entry, looked up): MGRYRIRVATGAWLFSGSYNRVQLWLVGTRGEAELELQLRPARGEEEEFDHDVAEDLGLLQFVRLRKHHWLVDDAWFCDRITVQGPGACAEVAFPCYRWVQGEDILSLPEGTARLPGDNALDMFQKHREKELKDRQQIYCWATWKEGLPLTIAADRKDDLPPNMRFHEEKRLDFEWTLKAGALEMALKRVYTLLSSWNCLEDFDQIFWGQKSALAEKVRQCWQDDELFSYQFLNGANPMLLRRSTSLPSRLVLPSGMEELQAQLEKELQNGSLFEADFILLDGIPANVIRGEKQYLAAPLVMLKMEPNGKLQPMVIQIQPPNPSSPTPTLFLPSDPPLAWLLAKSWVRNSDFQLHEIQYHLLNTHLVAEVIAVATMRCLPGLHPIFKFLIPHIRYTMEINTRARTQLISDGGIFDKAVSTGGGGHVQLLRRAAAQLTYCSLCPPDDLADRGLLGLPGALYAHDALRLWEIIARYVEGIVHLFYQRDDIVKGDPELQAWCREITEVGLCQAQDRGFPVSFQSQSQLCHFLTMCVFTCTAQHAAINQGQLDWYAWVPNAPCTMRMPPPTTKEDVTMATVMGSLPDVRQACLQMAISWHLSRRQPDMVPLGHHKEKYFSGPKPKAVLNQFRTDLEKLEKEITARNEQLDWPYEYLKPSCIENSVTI
Outline: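 Hydroperoxide output read as Fe(III)-xylenol orange absorbance, 573-to-405 nm ratio, after 30 min reaction with 40 uM arachidonic acid. Enzyme: 150 nM purified human 12hLO, 15 min compound preincubation; 25 mM Hepes pH 7.0, room temperature.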
% is scaled to controls: 0 for no effect and ±100 for the full control effect; potency is read from the fitted curve at half-maximal effect; tags tell the direction and shape of the fitted curve.
Also: nearly all actives have a fitted effect of over 55% in size.

Structure (SMILES)	Potency	activity change, negative = inhibition
C/C=C(/C(=C/C)c1ccc(O)cc1)c1ccc(O)cc1	inconclusive: 25.1 µM [inhibitor, single point]	
COC(=O)c1ccc2c(c1)C(C)(C)C(/C=C/c1ccc(OC)c(OC)c1OC)=[N+]2C	inconclusive: 20 µM [inhibitor, single point]	
COc1ccc(-n2c(Cc3cccn3C)nnc2SCC(=O)Nc2cccc(NC(C)=O)c2)cc1		inactive: -6.19%
CCCN(CCC)C1=N/C(=C\c2ccco2)C(=O)N1c1ccccc1	inconclusive: 31.6 µM [inhibitor, partial curve]	
O=C(N/N=C/c1ccc(Br)o1)c1ccc2c(c1)OCCO2		inactive: 1.84%
C1CCCC1		inactive: -3.65%
COc1ccccc1NC(=O)CCC(=O)Nc1ccccc1OC		inactive: 0.436%
COc1cccc(C2/C(=C(\O)c3ccc(OC)c(OC)c3)C(=O)C(=O)N2c2cc(C)on2)c1 (centres undefined)		inactive: 8.02%
O=C(OCC(=O)N1CCc2ccccc21)c1c2c(nc3ccccc13)CCCC2		inactive: -4.96%
O=C(CCn1c(=O)oc2ccccc21)N1CCN(C(c2ccccc2)c2ccccc2)CC1		inactive: -5.6%
CCCC(=O)Nc1nnc(CCOC)s1		inactive: 23.8%
O=C(/C=C/c1c(F)cccc1Cl)c1ccc(F)cc1	inconclusive: 22.4 µM [inhibitor, single point]	
COc1cccc(CC(NC(C)=O)C(=O)NC2CCN(c3nnnn3-c3ccccc3)CC2)c1 (centres undefined)		inactive: 0.706%
c1ccc(COc2cccc(CN3CCN(c4ccccn4)CC3)c2)cc1	inconclusive: 12.6 µM [inhibitor, partial curve]	
COc1cc(/C=N/N(C)c2ccccc2)cc(Cl)c1O	inconclusive: 31.6 µM [inhibitor, single point]	
O=C(O)c1ccc2cc(-c3ccc(O)c(C45CC6CC(CC(C6)C4)C5)c3)ccc2c1	inconclusive: 31.6 µM [inhibitor, single point]	
COc1ccc(Cl)cc1NC(=S)NCCc1c[nH]c2ccccc12	inconclusive: 14.1 µM [inhibitor, partial curve]	
CCC(=O)c1ccc(OCC(=O)Nc2nn3cnnc3s2)cc1		inactive: -3.6%
O=C(Oc1c(CN2CCOCC2)cc(Cl)c2cccnc12)c1ccc(F)cc1	inconclusive: 2.24 µM [inhibitor, full curve, poor fit]	
CN(C)c1ccc(-c2nccc(NCCN3CCOCC3)n2)cc1		inactive: -1.71%
CCCCCn1c(NC(=O)c2ccco2)c(S(=O)(=O)c2ccc(C)cc2)c2nc3ccccc3nc21	inconclusive: 22.4 µM [inhibitor, partial curve]	
CC1(C)Cc2[nH]c(=S)c(C#N)cc2CO1	inconclusive: 35.5 µM [inhibitor, single point]	
COCCn1nnnc1CN(CCc1ccc(OC)c(OC)c1)Cc1cc2ccc(C)cc2[nH]c1=O		inactive: -6.26%
O=C1NC(=S)S/C1=C1\Sc2ccccc2N1CCCS(=O)(=O)O	inconclusive: 25.1 µM [inhibitor, partial curve]	
O=C(COC(=O)CCSc1ccc(Cl)cc1)NCc1ccccc1Cl		inactive: 0.113%

Structure (SMILES)	Potency	activity change, negative = inhibition
Cc1ccccc1NC(=S)NC(=O)c1cc(-c2ccccc2)nc2ccccc12	inconclusive: 20 µM [inhibitor, partial curve]	
O=C(Cn1sc2ccccc2c1=O)NC12CC3CC(CC(C3)C1)C2	active: 7.94 µM	
CC1=C(C(=O)OC(C)C)C(c2ccccc2)NC(=S)N1C (centres undefined)	inconclusive: 7.08 µM [inhibitor, partial curve]	
O=C(OCc1cccc(F)c1)c1ccc2c(c1)-c1ccccc1C2=O		inactive: -2.89%
CCCCC/C=C\C/C=C\C/C=C\C/C=C\CCCC(=O)O[C@@H](CO)COCCCCCCCCCCCCCCCC		inactive: 2.25%
CCOC(=O)c1ccc(NC(=O)Nc2ccc(S(N)(=O)=O)cc2)cc1		inactive: 1.79%
CCCCNC(=S)NC(=O)c1ccc(Cl)cc1Cl	inconclusive: 14.1 µM [inhibitor, partial curve]	
N#C/C(=C\c1ccc(O)c(O)c1)C(=O)NCCCc1ccccc1	inconclusive: 15.8 µM [inhibitor, partial curve]	
CCCCc1ccc(-c2csc(/C(C#N)=C\c3ccc(C)o3)n2)cc1	inconclusive: 25.1 µM [inhibitor, partial curve]	
Cc1ccc(SCc2[nH]nc3c2C2(CCSCC2)C(C#N)=C(N)O3)cc1		inactive: -29.5%
O=C(NCc1ccco1)c1cccc(NS(=O)(=O)c2ccccc2F)c1		inactive: 2.83%
COc1ccc(S(=O)(=O)N(C(=O)C(C)C)c2ccc3oc(=O)sc3c2)cc1	inconclusive: 3.16 µM [inhibitor, full curve]	
CNC(=S)N/N=C/C1=CCC2CC1C2(C)C (centres undefined)	inconclusive: 35.5 µM [inhibitor, single point]	
S=c1[nH]nc(-c2ccc(Br)cc2)n1Cc1ccco1		inactive: -8.29%
COc1ccc(CCNC(=S)Nc2cccc3ccccc23)cc1	inconclusive: 39.8 µM [inhibitor, single point]	
O=C1CC(Nc2ccc(N3CCOCC3)cc2)C(=O)N1c1ccccc1 (centres undefined)	inconclusive: 28.2 µM [inhibitor, single point]	
NC(=S)N/N=C\c1ccc(-c2cccc(Cl)c2Cl)o1	inconclusive: 25.1 µM [inhibitor, single point]	
Cc1ccc(C(=O)N[C@H](C(=O)Nc2cc(Cl)cc(Cl)c2)C(C)C)cc1		inactive: -4.74%
CCOC(=O)c1cc(OC(=O)c2cccc([N+](=O)[O-])c2)n(-c2ccccc2)n1	inconclusive: 12.6 µM [inhibitor, partial curve]	
Cc1ccc(S(=O)(=O)Nc2ccc(Br)cc2/C=N/n2cnnc2)cc1	inconclusive: 15.8 µM [inhibitor, partial curve]	
CCOC(=O)N1CCN(C(=O)C2CCN(Cc3cccc(OCc4ccccc4)c3)CC2)CC1		inactive: -2.9%
O=C(CSc1nnnn1-c1ccccc1)CC(=O)Nc1ccc(Cl)cc1	active: 10 µM	
COc1ccc(NC(=O)COC(=O)[C@@H]2CCCN2C(=O)c2cccs2)c(OC)c1	inconclusive: 7.08 µM [inhibitor, single point]	
O=C(c1cnccn1)N1CCC[C@@]2(CCN(c3cccc(-c4ccccc4)c3)C2)C1	inconclusive: 28.2 µM [inhibitor, single point]	
